The source gives no read counts; variants with many changes may rest on few reads.
B1: LINE1-mini (parent)
chain: GGCAGAGCUCAACACAGCGUGGCAAAGUGGCUGUGGCUAGACUGCC

Variants of: B1
Assay: self-cleavage, relative activity (ratio to wild type); higher = more cleavage; in vitro, sequencing; the parent is a self-cleaving ribozyme
GGCAGAGAUCAACACAUCGUGGCAAAGUGGCUGUGGCAAGACUGCC [C8A G17U U38A] showed a self-cleavage of 0.11.
In the case of GGCAGAGAUCAACACAUCGUGGCAAAGUGGCUGUGGCGAGACUGCC [C8A G17U U38G], the self-cleavage is reported as 0.04.
Variant GGCAGAGAUCAACACAGCGUGACAAAGGGGCUGUGGCUUGACUCCC [C8A G22A U28G A39U G44C] has a self-cleavage of 0.03.
GGCAGAGAUCAAAACAGCGUGGCAAAGUAGCUGUGGCUAGACUGCC [C8A C13A G29A] showed a self-cleavage of 0.15.
In the case of GGCAGAGAUCAACACAGCGUGGUAAAGUAGCUGUGGCUAGACUGCC [C8A C23U G29A], the self-cleavage is reported as 0.22.
Variant GGCAGAGAUUAACACAGCGUGGCAAAGAGGCUGUGGCUAGACUGCA [C8A C10U U28A C46A] has a self-cleavage of 0.03.
With GGCAGAGAUCAACACAGCGUGGCCAAGUGGCUGUGACUAGACUGCC [C8A A24C G36A] the self-cleavage was 0.26.
In the case of GGCAGAGAUCAACACAGGGGGGCAAAGUGGCUGUGGCUAGACUGCC [C8A C18G U20G], the self-cleavage is reported as 0.1.
Work on GGCAGAGAUCAACACAUCGUGGCAAAGUCGCUGUGGCUGGACUGCC [C8A G17U G29C A39G] yielded a self-cleavage of 0.02.
Work on GGCAGAGAUCAACACAGGCCGGCAAAGUGGCUGUGGCUAGACUGCC [C8A C18G G19C U20C] yielded a self-cleavage of 0.26.
Work on GGCAGAGAUCAAGACGGCGUGGCAAAGUGGCUGUGGCUUGACUGCC [C8A C13G A16G A39U] yielded a self-cleavage of 0.1.
GGCAGAGAUCAACACAGAGUGCCAAAGUGGCUGUGGCUAAGCUGCC [C8A C18A G22C G40A A41G] gave a self-cleavage of 0.58.
For GGCAGAGAUGAACACAGCGUGGCAAAGUAGCUGUGGCUAGACUGCC [C8A C10G G29A], the self-cleavage was 0.01.
For GGCAGAGAUCAACACAGCGUGGCAAAGUAGCUGUGGCUAGAGUGCC [C8A G29A C42G], the self-cleavage was 1.79.
In the case of GGCAGAGAUCAACACAGCGUGGCAAAGUUGCUGUGUCUAGUCUGCC [C8A G29U G36U A41U], the self-cleavage is reported as 0.05.
For GGCAGAGAUAAACACAGCGGGGCAAAGUGGGUGUGGCUAGACUGCC [C8A C10A U20G C31G], the self-cleavage was 0.
GGCAGAGAUCAACACAGCGUGGUAAAGUGGCUGUGGCUAAAAUGCC [C8A C23U G40A C42A] gave a self-cleavage of 0.07.
Work on GGCAGAGAUCAACACAGCGUGACAAAGGGGCUGUGGCUAGACUGCC [C8A G22A U28G] yielded a self-cleavage of 0.06.
Work on GGCAGAGAUCAACACAGCGUGGCAAAGUGGCUGUGGCUAGAAUGCU [C8A C42A C46U] yielded a self-cleavage of 0.09.
For GGCAGAGAUCAACACAGCCCGGCAAAGUGGCUGUGGCUAGACUGCC [C8A G19C U20C], the self-cleavage was 0.04.
Variant GGCAGAGAUUAACAAAGCGUGGCAAAGUGGCUGUGGCUAGACGGUC [C8A C10U C15A U43G C45U] has a self-cleavage of 0.03.
With GGCAGAGAUCAACACAGGGUGGCAAAGUGGCUGUGGCUAGUCUGCC [C8A C18G A41U] the self-cleavage was 0.03.
In the case of GGCAGAGAUCAACACAGCGUGGCAUAGUGGCUGUGGCUCGCCAGCC [C8A A25U A39C A41C U43A], the self-cleavage is reported as 0.04.
Work on GGCAGAGAUCAACACAGCGUGGCAAAGUGGGUGUGGCUGGACUGCC [C8A C31G A39G] yielded a self-cleavage of 0.01.
Variant GGCAGAGAUCAACACAGCGUGGAAAAGUGGCUGUGGAUAGACAGCC [C8A C23A C37A U43A] has a self-cleavage of 0.16.
Work on GGCAGAGAUCAACACAGGGUGACAAAGUGGCUGUGCCUAUACUGCC [C8A C18G G22A G36C G40U] yielded a self-cleavage of 0.04.
Variant GGCAGAGAUCAACACAGCGUGGUAAAGUGGCCGUGGCUAGACUGCC [C8A C23U U32C] has a self-cleavage of 0.33.
GGCAGAGAUCAAAACAGGGUGGCCAAGUGGCUGUGUCUAGACUGCC [C8A C13A C18G A24C G36U] gave a self-cleavage of 0.27.
For GGCAGAGAUUAACACAGCCUGGCAAAGUGGCCGUGGCUAGACUGCC [C8A C10U G19C U32C], the self-cleavage was 0.06.
Variant GGCAGAGAUCAACACACCGUGGCAAUGUUGCUGUGUCUAGACUGCC [C8A G17C A26U G29U G36U] has a self-cleavage of 0.25.
Work on GGCAGAGAUAAACAAAGCGUGGCAAAGUGGCUGUGGGUAGACUGCC [C8A C10A C15A C37G] yielded a self-cleavage of 0.02.
Variant GGCAGAGAUCAAGACAGCGUGGCAAAGUCGUUGUGGCUAUACGGCC [C8A C13G G29C C31U G40U U43G] has a self-cleavage of 0.49.
In the case of GGCAGAGAUAAACAGAGCGUGGCAAAGUGGGUGUGGCUAGACUGCC [C8A C10A C15G C31G], the self-cleavage is reported as 0.08.
With GGCAGAGAUAAACAUAGCGUGGCAAAUUGCCUGUAGCUAGACUGCC [C8A C10A C15U G27U G30C G35A] the self-cleavage was 0.04.
GGCAGAGAUCAACACAGCGUGGCAAACUGACUGUGGCUAGACUGCC [C8A G27C G30A] showed a self-cleavage of 0.31.
GGCAGAGAUCAACACAGCGUGGCAAACUGGCUGUGGCUAGGCUGCC [C8A G27C A41G] showed a self-cleavage of 0.02.
For GGCAGAGAUCAACACAGCGUGGCAGAGUGGCUGUGGCUAGACCGAC [C8A A25G U43C C45A], the self-cleavage was 0.12.
In the case of GGCAGAGAUCAACACAGAGUGGCAAGGUGGCUGUGGCUAGACUGCC [C8A C18A A26G], the self-cleavage is reported as 0.09.
GGCAGAGAUCAACACAGGGUGUCAAACUUGCUGUGGCUAGACUGCC [C8A C18G G22U G27C G29U] showed a self-cleavage of 0.1.
For GGCAGAGAUCAACACAGCGUGGUAAAGUGGCUGUGGCUAGACUGGC [C8A C23U C45G], the self-cleavage was 0.06.
With GGCAGAGAUCAAAACGGCAUGGCAAAGUGGCUGUGGCUAGACUGCC [C8A C13A A16G G19A] the self-cleavage was 0.04.
GGCAGAGAUAAACACAGCGUGGUAAAGUGGCUGUGGCUAGACUGCU [C8A C10A C23U C46U] showed a self-cleavage of 0.
GGCAGAGAUCAACACAGCCUGGCAACGUGGCUGUGGCUAGACUGAC [C8A G19C A26C C45A] showed a self-cleavage of 0.
With GGCAGAGAUCAAAUCAACGUGGCAAAAUGGCUGUGGCAAGACUGCC [C8A C13A A14U G17A G27A U38A] the self-cleavage was 0.17.
In the case of GGCAGAGAUCAACACAGCGUGGCAAAGUGGCUGUGGUUAGCCUGCC [C8A C37U A41C], the self-cleavage is reported as 0.07.
GGCAGAGAUCAACACAGCGUGGCAAAGUAGCUGUGGCUAGACUACC [C8A G29A G44A] gave a self-cleavage of 0.25.
GGCAGAGAUCAAAUCAGCGUGGCAAAGUGGCUGUGGCUAGACUGUC [C8A C13A A14U C45U] showed a self-cleavage of 0.31.
Variant GGCAGAGAUCAACACAGCGUGGCAUAUUGGCUGUGGCUACACUGCC [C8A A25U G27U G40C] has a self-cleavage of 0.37.
For GGCAGAGAUCAACACAACCUGGCAAAGUGGCUGUGGUUAUACUGCC [C8A G17A G19C C37U G40U], the self-cleavage was 0.09.
With GGCAGAGAUCAACACAGGGUGGCAAAGUCCCUGUGGCCAAACUGCC [C8A C18G G29C G30C U38C G40A] the self-cleavage was 0.03.
GGCAGAGAUCAACACAGCGUGGCAAAGUAGCUGUGGCUCGACUGCC [C8A G29A A39C] showed a self-cleavage of 0.02.
In the case of GGCAGAGAUCAACACAGCGUUGCCAAGUGGCUGUGGCUAGACUGCA [C8A G21U A24C C46A], the self-cleavage is reported as 0.11.
In the case of GGCAGAGAUCAACACAGCGUGACAAAGUGGCUGUAGCUAGACUGCC [C8A G22A G35A], the self-cleavage is reported as 0.44.
Work on GGCAGAGAUCAACACAGCGUUGCAAAGUGGCUGUGUCUAGACUGCA [C8A G21U G36U C46A] yielded a self-cleavage of 0.14.
In the case of GGCAGAGAUCAACACAGCGUGGAAAAGUGGCUGUGGCUAGACUGUC [C8A C23A C45U], the self-cleavage is reported as 0.22.
With GGCAGAGAUCAACACAGCGUGGCAAUGUGGCUGAGGCUAGACUGCC [C8A A26U U34A] the self-cleavage was 0.05.

From the RNAGym collection of RNA variant scans (doi:10.7554/elife.90254)
